Assay results reported in the supplement of paper PMC9135407.
Where “and” joins values, the source holds several entries; their conditions need not be identical. Identical values can stand only once. Counter-ions that a name gives are not always drawn. Out of some 5,800 compounds screened, about 620 (11%) showed activity.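 The calls were made as follows: active = score above a cut-off or among the top three wells of a plate; in these data no inactive exceeds 0.85.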 The list shows a part of the results, in another mix than the full data.

System: primary human hepatic stellate cells (donor 1)
Experiment: scaled lipid accumulation score (0 = DMSO-like, 1 = nortriptyline-like); higher = stronger HSC inactivation (lipid re-accumulation), active = hit call of the paper
Details: 48 h
[1] = library stock concentration: 10 mM
[2] = library stock concentration: 3.33 mM
[3] = library stock concentration: 1 mM
[4] = library stock concentration: 5 mM

COc1ccc2cc(CCC(C)=O)ccc2c1
scaled lipid accumulation score [1]: inactive: 0.116

COc1ccc2cc(CCC(C)=O)ccc2c1 [Nabumetone]
scaled lipid accumulation score: inactive: 0.059 | scaled lipid accumulation score [2]: inactive: ≤ 0 | scaled lipid accumulation score (library stock concentration: 8.8 mM): inactive: 0.161 and inactive: ≤ 0 | scaled lipid accumulation score [1]: inactive: 0.05 and inactive: ≤ -0.027

Cc1cccc(/C=C/c2ccccc2)n1
scaled lipid accumulation score [1]: inactive: ≤ 0 and inactive: ≤ -0.006

O=C(O)CCC(=O)OC[C@@H](NC(=O)C(Cl)Cl)[C@H](O)c1ccc([N+](=O)[O-])cc1 [Chloramphenicol hemisuccinate]
scaled lipid accumulation score (library stock concentration: 4.7 mM): inactive: ≤ -0.001 | scaled lipid accumulation score [1]: inactive: ≤ 0

CCCCCC(C)N (centres undefined) [Tuaminoheptane sulfate]
scaled lipid accumulation score (library stock concentration: 9.4 mM): inactive: 0.016 | scaled lipid accumulation score [1]: inactive: ≤ 0

C[C@H]1[C@@H](O)O[C@@H]2O[C@@]3(C)CC[C@H]4[C@H](C)CC[C@@H]1[C@@]24OO3
scaled lipid accumulation score [1]: inactive: ≤ 0

C[C@H]1[C@@H](O)O[C@@H]2O[C@@]3(C)CC[C@H]4[C@H](C)CC[C@@H]1[C@@]24OO3 [Dihydroartemisinin (DHA)]
scaled lipid accumulation score [2]: inactive: ≤ 0 | scaled lipid accumulation score [1]: inactive: 0.019

Cc1cc(C)cc(C(=O)N(C)[C@H](Cc2ccc(-c3ccccc3)cc2)C(=O)N[C@@H](Cc2c[nH]c3ccccc23)C(=O)O)c1
scaled lipid accumulation score [1]: inactive: 0.057

COc1ccc(-c2oc3c(CC=C(C)C)c(O[C@@H]4O[C@H](CO)[C@@H](O)[C@H](O)[C@H]4O)cc(O)c3c(=O)c2O[C@@H]2O[C@@H](C)[C@H](O)[C@@H](O)[C@H]2O)cc1 [Icariin]
scaled lipid accumulation score [2]: inactive: 0.048 | scaled lipid accumulation score [1]: inactive: ≤ 0

COc1ccc(-c2oc3c(CC=C(C)C)c(O[C@@H]4O[C@H](CO)[C@@H](O)[C@H](O)[C@H]4O)cc(O)c3c(=O)c2O[C@@H]2O[C@@H](C)[C@H](O)[C@@H](O)[C@H]2O)cc1
scaled lipid accumulation score [1]: inactive: ≤ 0

CCn1cc(C(=O)O)c(=O)c2ccc(C)nc21 [Nalidixic acid sodium]
scaled lipid accumulation score [1]: inactive: ≤ -0.055

CCn1cc(C(=O)O)c(=O)c2ccc(C)nc21 [Nalidixic acid]
scaled lipid accumulation score [2]: inactive: ≤ 0 | scaled lipid accumulation score (library stock concentration: 8.6 mM): inactive: ≤ 0 | scaled lipid accumulation score [1]: inactive: ≤ 0

CCn1cc(C(=O)O)c(=O)c2ccc(C)nc21
scaled lipid accumulation score [1]: inactive: ≤ 0

CCO[C@@H]1OC(=O)C[C@@H]1NC(=O)[C@@H]1CCCN1C(=O)[C@@H](NC(=O)c1ccc(N)c(Cl)c1)C(C)(C)C
scaled lipid accumulation score [2]: inactive: ≤ 0 | scaled lipid accumulation score [1]: inactive: ≤ 0

CCCCCCCC/C=C\CCCCCCCC(=O)OC[C@@H](O)COP(=O)(O)O [1-Oleoyl Lysophosphatidic Acid]
scaled lipid accumulation score [3]: inactive: ≤ 0

CCCCCCCC/C=C\CCCCCCCC(=O)OC[C@@H](O)COP(=O)(O)O [1-Oleoyl Lysophosphatidic Acid (sodium salt)]
scaled lipid accumulation score [3]: inactive: ≤ 0

Oc1c(I)cc(I)c2cccnc12 [Iodoquinol]
scaled lipid accumulation score [4]: inactive: ≤ 0 | scaled lipid accumulation score [1]: inactive: ≤ 0

CCCCCCCC/C=C\CCCCCCCC(=O)N[C@@H](CO)Cc1ccc(O)cc1
scaled lipid accumulation score [3]: inactive: ≤ 0 | scaled lipid accumulation score [1]: inactive: 0.088

NCCS(=O)(=O)O [Taurine]
scaled lipid accumulation score [1]: inactive: ≤ 0 | scaled lipid accumulation score (library stock concentration: 16 mM): inactive: ≤ 0

COc1cc2nc(N3CCN(C(=O)c4ccco4)CC3)nc(N)c2cc1OC [Prazosin]
scaled lipid accumulation score [1]: active: 1

O=C(Nc1cc(C(F)(F)F)ccc1N1CCCCC1)c1ccncc1
scaled lipid accumulation score [2]: inactive: ≤ -0.009 | scaled lipid accumulation score [1]: inactive: ≤ 0

CCn1cc(C(=O)O)c(=O)c2cnc(N3CCNCC3)nc21 [Pipemidic acid]
scaled lipid accumulation score: inactive: ≤ 0 | scaled lipid accumulation score [1]: inactive: ≤ 0

N#CC(C#N)=C(N)/C(C#N)=C/c1ccc(O)cc1 [Tyrphostin AG 112]
scaled lipid accumulation score [1]: inactive: ≤ 0

N#CC(C#N)=C(N)/C(C#N)=C/c1ccc(O)cc1
scaled lipid accumulation score [2]: inactive: ≤ 0

CC(C)OC(=O)CCC/C=C\C[C@@H]1[C@@H](/C=C/C(F)(F)COc2ccccc2)[C@H](O)C[C@@H]1O [Tafluprost]
scaled lipid accumulation score [3]: inactive: ≤ 0

CN1CCN(c2nc3cc(C(F)(F)F)ccc3n3cccc23)CC1.O=C(O)/C=C\C(=O)O
scaled lipid accumulation score [1]: active: 1.15

COc1nc(C)nc(Cl)c1NC1=NCCN1
scaled lipid accumulation score [1]: inactive: ≤ 0

COc1nc(C)nc(Cl)c1NC1=NCCN1 [Moxonidine]
scaled lipid accumulation score: inactive: ≤ 0 | scaled lipid accumulation score [2]: inactive: ≤ 0 | scaled lipid accumulation score [1]: inactive: ≤ 0

COc1nc(C)nc(Cl)c1NC1=NCCN1 [Moxonidine hydrochloride]
scaled lipid accumulation score [1]: inactive: 0.003 and inactive: 0.009

CCCC[C@@H](C=O)NC(=O)[C@H](CC(C)C)NC(=O)OCc1ccccc1 [Calpeptin]
scaled lipid accumulation score [1]: inactive: 0.084 | scaled lipid accumulation score (library stock concentration: 13.8 mM): inactive: 0.117

Cc1ccc(S(=O)(=O)NC(=O)NN2CC3CCCC3C2)cc1 (centres undefined) [Gliclazide]
scaled lipid accumulation score: inactive: ≤ 0 | scaled lipid accumulation score [2]: inactive: ≤ 0 | scaled lipid accumulation score (library stock concentration: 6.2 mM): inactive: 0.012 | scaled lipid accumulation score [1]: inactive: ≤ 0 and inactive: ≤ -0.027

O=c1c(O)cccc2cc(O)c(O)c(O)c12 [Purpurogallin]
scaled lipid accumulation score [1]: inactive: ≤ 0

c1ccc(C(NCCNC(c2ccccc2)c2ccccc2)c2ccccc2)cc1
scaled lipid accumulation score [1]: inactive: 0.747

c1ccc(C(NCCNC(c2ccccc2)c2ccccc2)c2ccccc2)cc1 [AMN 082 dihydrochloride]
scaled lipid accumulation score [1]: inactive: 0.607

CC(=O)N[C@@H](CC(=O)N[C@@H](CCC(=O)O)C(=O)O)C(=O)O [Spaglumic acid]
scaled lipid accumulation score: inactive: 0.002 | scaled lipid accumulation score [1]: inactive: 0.002

O=c1c(O)c(-c2cc(O)c(O)c(O)c2)oc2cc(O)cc(O)c12 [Myricetin]
scaled lipid accumulation score: inactive: ≤ 0 | scaled lipid accumulation score [1]: inactive: 0.113

O=C(O)c1cc2ccccc2[nH]1 [Indole-2-carboxylic acid]
scaled lipid accumulation score [1]: inactive: ≤ 0

Cc1cc(Cn2cnc3c2CC(C(=O)O)N(C(=O)C(c2ccccc2)c2ccccc2)C3)ccc1N(C)C (centres undefined)
scaled lipid accumulation score [2]: inactive: ≤ -0.009 | scaled lipid accumulation score [1]: inactive: 0.021 and inactive: 0.002

CC(C)C[C@@H](C=O)NC(=O)[C@H](CC(C)C)NC(=O)[C@H](CC(C)C)NC(=O)OCc1ccccc1
scaled lipid accumulation score [2]: inactive: 0.555 | scaled lipid accumulation score [1]: inactive: 0.721

N[C@H]1C(O)O[C@H](CO)[C@@H](O)[C@@H]1O (some centres undefined) [Glucosamine hydrochloride]
scaled lipid accumulation score (library stock concentration: 9.3 mM): inactive: ≤ -0.001 | scaled lipid accumulation score [1]: inactive: 0.034

O=c1oc(Cl)c(Cl)c2ccccc12 [3,4-dichloroisocoumarin]
scaled lipid accumulation score (library stock concentration: 23.3 mM): inactive: 0.634

O=c1oc(Cl)c(Cl)c2ccccc12 [3,4-Dichloroisocoumarin]
scaled lipid accumulation score [1]: inactive: 0.402

C=C1C[C@H]2[C@@H]3C=C(C)C4=CC(=O)CC[C@]4(C)[C@H]3CC[C@]2(C)[C@@]1(OC(C)=O)C(C)=O [Melengestrol acetate]
scaled lipid accumulation score [4]: inactive: ≤ 0

C=C1C[C@H]2[C@@H]3C=C(C)C4=CC(=O)CC[C@]4(C)[C@H]3CC[C@]2(C)[C@@]1(OC(C)=O)C(C)=O
scaled lipid accumulation score [1]: inactive: 0.119

COc1ccc2c(c1)c(CC(=O)NCCc1ccccc1)c(C)n2C(=O)c1ccc(Cl)cc1 [N-(2-phenylethyl)-Indomethacin amide]
scaled lipid accumulation score [3]: inactive: 0.049

CCCCCCCCCCCCCCCCCCCC(=O)NCCO [Arachidoyl Ethanolamide]
scaled lipid accumulation score [3]: inactive: ≤ 0

CC(=O)Oc1cccc2c1C(=O)c1c(OC(C)=O)cc(C(=O)O)cc1C2=O [Diacerein]
scaled lipid accumulation score [2]: inactive: ≤ 0 | scaled lipid accumulation score [1]: inactive: ≤ -0.001

CC(C)(C#N)c1ccc(N2C(=O)OCc3cnc4ccc(-c5cnc6ccccc6c5)cc4c32)cc1
scaled lipid accumulation score [2]: inactive: 0.051 | scaled lipid accumulation score [1]: inactive: 0.782

O=C(O)c1ccc2ccccc2c1O.OCc1cc(C(O)CNCCCCCCOCCCCc2ccccc2)ccc1O (centres undefined) [Salmeterol xinafoate]
scaled lipid accumulation score [1]: active: 0.978

CC1(C)OC(=O)NC1=O [Dimethadione]
scaled lipid accumulation score: inactive: ≤ 0 | scaled lipid accumulation score [1]: inactive: ≤ 0 | scaled lipid accumulation score (library stock concentration: 15.5 mM): inactive: 0.011

CNc1nc(Nc2cnn(C3CCN(C4COC4)CC3F)c2Cl)ncc1C(F)(F)F (centres undefined)
scaled lipid accumulation score [2]: inactive: ≤ -0.009 | scaled lipid accumulation score [1]: inactive: ≤ 0

N[C@@H](C(=O)O)c1ccc(C(=O)O)c(C(=O)O)c1
scaled lipid accumulation score [1]: inactive: ≤ -0.006

N=C(N)NCC1COC2(CCCCC2)O1 (centres undefined) [Guanadrel sulfate]
scaled lipid accumulation score: inactive: ≤ 0

Cn1nnnc1SCC1=C(C(=O)O)N2C(=O)[C@@H](NC(=O)[C@H](O)c3ccccc3)[C@H]2SC1 [Cefamandole sodium salt]
scaled lipid accumulation score: inactive: ≤ 0

CCC[C@H](N[C@@H](C)C(=O)N1[C@H](C(=O)O)C[C@@H]2CCCC[C@@H]21)C(=O)OCC [Perindopril]
scaled lipid accumulation score: inactive: ≤ 0

CCC[C@H](N[C@@H](C)C(=O)N1[C@H](C(=O)O)C[C@@H]2CCCC[C@@H]21)C(=O)OCC [Perindopril erbumine]
scaled lipid accumulation score (library stock concentration: 4.5 mM): inactive: ≤ 0 | scaled lipid accumulation score [1]: inactive: 0.152

Fc1ccc(-c2nc3n(c2-c2ccncc2)CCS3)cc1
scaled lipid accumulation score [2]: inactive: ≤ 0 | scaled lipid accumulation score [1]: inactive: ≤ -0.001

COCCOc1ccc2c(c1)ncn2-c1ccc2cccc(N3CCC(N)CC3)c2n1
scaled lipid accumulation score [1]: active: 0.937

COc1ccc(NS(=O)(=O)c2ccc(N)cc2)nn1 [Sulfamethoxypyridazine]
scaled lipid accumulation score: inactive: ≤ 0 | scaled lipid accumulation score [2]: inactive: ≤ 0 | scaled lipid accumulation score (library stock concentration: 7.1 mM): inactive: ≤ 0 | scaled lipid accumulation score [1]: inactive: 0.049 and inactive: ≤ 0

Nc1ccc(C(=O)NCC(=O)O)cc1 [4-Aminohippuric Acid]
scaled lipid accumulation score [2]: inactive: ≤ 0 | scaled lipid accumulation score [1]: inactive: ≤ 0

Nc1ccc(C(=O)NCC(=O)O)cc1 [Aminohippuric acid]
scaled lipid accumulation score: inactive: ≤ 0 | scaled lipid accumulation score [1]: inactive: ≤ -0.027

Nc1ccc(S(=O)(=O)c2ccc(N)cc2)cc1 [Dapsone]
scaled lipid accumulation score: inactive: ≤ 0 | scaled lipid accumulation score (library stock concentration: 8.1 mM): inactive: ≤ -0.001 | scaled lipid accumulation score [1]: inactive: ≤ 0

Nc1ccc(S(=O)(=O)c2ccc(N)cc2)cc1
scaled lipid accumulation score [1]: inactive: ≤ 0

O=Nc1ccc(O)c2ncccc12
scaled lipid accumulation score [1]: inactive: ≤ 0
